Test results published in the supplement of paper PMC10126150.
Sequences with one replicate were seen in a single cluster, so their values are uncertain.

System: ATP
Assay: switch fluorescence ratio, 500 uM ATP over buffer (Cy3 cluster intensity, sum of 5 cycles each) (fold (ratio)); higher = stronger signal-on switching upon ATP binding; sequences stand for … in TCGTCGGCAGCGTCAGATGTGTATAAGAGACAGTTTTTTTTTTTTTTTTTTTTTTTTT…TC
Conditions: aptamer strand: ATP DNA aptamer (quencher-CACCTGGGGGAGTATTGCGGAGGAAGG + anchor), 100 nM annealed; ATP concentration: 500 uM; one replicate
Procedure, shortened: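 Imaging in selection buffer was followed by imaging after 15 min with 500 uM ATP at 22 °C, for Cy3-labelled switching-strand clusters annealed to 100 nM quencher-labelled ATP aptamer on a modified Illumina MiSeq flow-cell. Five of these buffer/ATP cycles ran, separated by NaOH stripping and re-annealing. The fluorescence ratio per cluster is summed target-cycle over summed buffer-cycle Cy3 intensity, averaged per switch-domain sequence; clusters outside 100-1000 RFU were removed.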
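Note: ATP exposure 15 min at 22 °C before imaging.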

Row | Sequence | switch fluorescence ratio
1 | AACGATTGCC | 1.03
2 | TTCTTTCTAT | 1.2
3 | AATTTATGAT | 0.984
4 | ACGTATGGGT | 1.04
5 | GAGGTTCCTG | 0.999
6 | CATTTTCGCA | 1.01
7 | AAGATGGACT | 1.03
8 | ATGCGTGTCT | 0.989
9 | CCTAGAGATA | 1.01
10 | TAAAAATAGA | 0.984
11 | CGTTCGTCAC | 1.21
12 | ATCGCCTGAC | 2.01
13 | GGAATGCGTA | 1.05
14 | ATATTTGAAT | 0.982
15 | GAAGTGCTAC | 1.12
16 | GGTGTAGTA | 0.983
17 | GGTGGTCCGG | 1.01
18 | CTTCTTTAGA | 1.02
19 | AATAAGCATG | 1.03
20 | GATTGTTCG | 0.997
21 | AAAGGCTCCT | 1.03
22 | CATGTGAACC | 1.01
23 | GCCGTATAAC | 1.11

Row | Sequence | switch fluorescence ratio
24 | AATGCCACGC | 1.09
25 | CACACTCCCT | 1.52
26 | AAGGTTTATA | 1.05
27 | CCGCGTTGGA | 1.07
28 | CGTTCATTAA | 0.967
29 | CCGTATGACC | 1.13
30 | AGCAAGAAAG | 1.01
31 | GTTTTAAATT | 0.981
32 | TCATGTCGCG | 0.968
33 | TGGAAAATCC | 0.99
34 | ATTCCGTTT | 1.04
35 | AAGCCAGTAA | 0.997
36 | ATATGACTT | 1.03
37 | GAGAGCTAGT | 1.04
38 | TGCGGAATCT | 1.06
39 | CAAGCTGAGC | 0.985
40 | TTTTCGCGGC | 1.11
41 | CGAGCCATTT | 1.02
42 | CATGTGTAGC | 0.99
43 | CCATGCGTTA | 1.12
44 | TTAGAATGG | 0.974
45 | CACCGATAGA | 1.05
46 | AACCTTAGTT | 1.02

Row | Sequence | switch fluorescence ratio
47 | TGTTATCCTG | 0.986
48 | TCAGCCCACA | 1.04
49 | AGGGAGAGGA | 1.01
50 | TGTGTAGTTA | 0.971
51 | ACTGAATGCG | 1.04
52 | TGTAGTCAGG | 0.999
53 | TACAAGTTGC | 1.37
54 | ACCGATGTAG | 1.03
55 | GACCACTAAG | 1.06
56 | TTTGCTTGC | 1
57 | CTGCATTTTT | 1.71
58 | ATAAGGATGT | 0.979
59 | TTCCGGGGAC | 1.51
60 | AATAGAAAGC | 0.984
61 | ATCGAGCGCG | 1.01
62 | TGAGGTTCAG | 0.958
63 | GATTAGACTA | 1.04
64 | CTCTCTTC | 1.05
65 | ACGGCAGTTC | 1.07
66 | AGTGGCGTAC | 1.02
67 | GGTGCTTGAC | 1.01
68 | TCGATGTCTA | 1.01
69 | TTAACGAATT | 1.08

Row | Sequence | switch fluorescence ratio
70 | GGTCGTATGA | 1.01
71 | GGAGGAATGT | 1.07
72 | GATTACTATT | 1.01
73 | ATGCCGGCGT | 0.983
74 | CGCTCTACTC | 4.64
75 | GGATATGAAC | 1
76 | ATAGGATTAT | 1.05
77 | TAGGATTTAC | 1.01
78 | CTATATTGTG | 1.02
79 | TTCCATAGT | 0.997
80 | ATTCCAAAGC | 1.64
81 | CATGTTGTGG | 0.986
82 | TTCAACGTAT | 1.08
83 | CCTTTATGA | 0.969
84 | TTTTTACGCT | 0.969
85 | CACCTTTAAC | 0.988
86 | TTTCCATGTT | 1.03
87 | TCCTAGACT | 1.01
88 | ACGTTTGGAG | 1.01
89 | CCAGTAAGGT | 1
90 | ACGAGAAACA | 1.04
91 | GATCGCGGTC | 0.986
92 | TCGATACGTT | 1

Row | Sequence | switch fluorescence ratio
93 | TAATTGAGTG | 0.978
94 | TACCGGAGGC | 0.972
95 | GTTAGCAGCA | 1.02
96 | TGCAAGGTAT | 1
97 | AATGTCTCGT | 0.992
98 | GGGATTAGAC | 1.04
99 | ACTAGCACCC | 1.11
100 | TTTCTACATC | 1.03
101 | GGTTAATGCT | 0.993
102 | GCACGAGAGC | 1.03
103 | CCTGAGTCCC | 1.68
104 | CCCGGGGAGT | 1.02
105 | GAAATTGTTG | 0.976
106 | TTAGGCCAAG | 1
107 | GCGACTTTTC | 1.01
108 | TTTAGTG | 0.954
109 | CGTGGATGAA | 1.02
110 | CTTTTAAAAG | 1.08
111 | CGATTTTGCT | 0.986
112 | GAAGGGTCGT | 0.978
113 | TCCGACATGG | 1.1
114 | ATTGCAAAGG | 0.981
115 | CCTTTTGGGA | 0.968

Row | Sequence | switch fluorescence ratio
116 | CTTCCAACCG | 1.78
117 | AGATGTAACG | 1.03
118 | GGGACTTTGC | 1.02
119 | TGTGAAAGTA | 0.998
120 | ACAGGCCACG | 1.02
121 | CGGATAATCT | 1
122 | CTCAAGAACA | 0.983
123 | TGACACGGCA | 1.11
124 | TTTAGGAAGC | 0.988
125 | TGACCTATGA | 1.18
126 | TAGCAGTTGT | 0.949
127 | TGGTAAGAGA | 0.975
128 | AAAACGAGC | 1.1
129 | CCCGGGTAAA | 0.967
130 | GTTGGCCAAT | 1.02
131 | ATAAGCAGAG | 1.01
132 | TCAGAAATTA | 1.01
133 | CCGTAGAACG | 1.02
134 | ATGCCGGAAG | 0.996
135 | GAGCTAGATG | 0.976
136 | ACATACTATG | 1.17
137 | TCACTCAGTG | 1.01
138 | GTGTCCTTTG | 0.997

Row | Sequence | switch fluorescence ratio
139 | CGCGGCTCGT | 0.972
140 | TAATGTATGG | 0.998
141 | ACCTTTATAC | 1.52
142 | CGCGGTTCAG | 1.08
143 | AAAGCCGAGT | 0.971
144 | ACTTTCCTGG | 1.09
145 | GGAAAGAGGC | 1.02
146 | GCCCACGATT | 1.03
147 | ACGGTGCGGA | 0.98
148 | GTAAATTGCA | 1.03
149 | GCTAGTGAGC | 1.01
150 | GCGCTGTTTT | 1.31
151 | CATATTGAT | 1.05
152 | AGATACGT | 1.01
153 | TGTTGCATGA | 1.02
154 | AGTGCTTC | 0.967
155 | GAATACATAG | 1.06
156 | CCCATGATAT | 1.04
157 | TATTCCCCGG | 1.62
